# Test results reported in PubChem BioAssay AID624296 (National Center for Advancing Translational Sciences (NCATS), 2012).
# The campaign covered roughly 350,000 compounds. About 9,900 (2.8%) were called active. The shares of active, inactive and inconclusive entries below differ from those in the screen. Calls follow the shape of the dose curve; as a rule, active = well fitted activation curve with a large enough effect; inconclusive = small, poorly fitted or top-dose-only effect; inactive = no such curve, though single readings can be large or run the other way. Potencies of inconclusive entries are left out as doubtful fits.
# Test: A quantitative high throughput screen for small molecules that induce DNA re-replication in MCF 10a normal breast cells. Also: nearly all actives have a fitted effect of over 50% in size.
# Conditions: MCF 10A DNA re-replication, Hoechst nuclear intensity, 48 h; series mostly up to 46.1 µM
# Potency is read from the fitted curve at half-maximal effect; tags tell the direction and shape of the fitted curve.
row,SMILES,Potency
1,CC(=O)Nc1nc2c(ccc3ccccc32)s1,"inconclusive [activator, partial curve]"
2,O=C(CCCOc1ccc(Cl)cc1Cl)N/N=C/c1ccccc1,"inconclusive [activator, single point]"
3,Cc1ccc2nc(/N=C(\N)NC(=O)NC3CCCCC3)nc(C)c2c1,"inconclusive [activator, single point]"
4,COc1ccc(Br)cc1C(=O)Nc1ccc(Cc2ccncc2)cc1,"inconclusive [activator, partial curve, poor fit]"
5,Cc1c(C(=O)OCC(C)C)[nH]c2c1C(=O)CC(c1cccs1)C2 (stereo not drawn),"inconclusive [activator, full curve, poor fit]"
6,CCCCNC(=O)COn1nnc2ccc(S(=O)(=O)N3CCOCC3)cc21,inactive
7,CC1=C(C(=O)Nc2cccc(C(=O)NC3CCCC(C)C3C)c2)SCCO1 (stereo not drawn),inactive
8,O=C(NCc1c[nH]c2ccccc12)c1ccccc1,inactive
9,Cc1cc(Cl)cc(Cl)c1CNc1c([N+](=O)[O-])c(=O)oc2ccccc12,"inconclusive [activator, full curve, poor fit]"
10,Cc1nn(CCC(=O)NNC(=S)Nc2ccccc2)c(C)c1Br,"inconclusive [activator, single point]"
11,COc1cc(Nc2c3c(nc4ccccc24)CCCC3)cc(OC)c1OC,inactive
12,Cc1ccc2c(c1)Oc1ccc(NC(=O)CCl)cc1C(=O)N2,active: 5.8 µM
13,Cc1ccc2c(c1)c(=O)c(Br)c(C)n2Cc1ccccc1,"inconclusive [activator, partial curve]"
14,O=C(NCCc1ccc(Cl)cc1)C1CCN(C(=O)c2sccc2-n2cccc2)CC1,"inconclusive [activator, partial curve, poor fit]"
15,Cc1c(C(=O)N2CCCC2)c(S(=O)(=O)NCCc2ccccc2)c(C)n1C,inactive
16,CCN(CC(=O)Nc1cc(Cl)ccc1C)C(=O)CC1CCCC1,inactive
17,COc1ccc(-c2cc(C(=O)N(C)CC(=O)Nc3cccc(F)c3)c3ccccc3n2)cc1,"inconclusive [activator, single point]"
18,CCO[C@@H]1OC(C(N)=O)=C[C@H](c2ccc(Br)cc2)[C@H]1CCCO,"inconclusive [activator, partial curve, poor fit]"
19,CN1CCN(C2=C(Cl)C(=O)N(c3ccc(Cl)c(Cl)c3)C2=O)CC1,"inconclusive [activator, single point]"
20,CCOc1ccc(S(=O)(=O)N2CCC(C(=O)NCc3ccccc3CN3CCCC3)CC2)cc1,inactive
21,Clc1ccc(-c2nc3cnccn3c2NC2CCCC2)cc1,active: 20.6 µM
22,CSc1ccccc1NC(=O)CN(C)C(=O)/C=C/c1ccccc1,inactive
23,COc1ccccc1CNS(=O)(=O)CCNCCc1ccccc1,active: 20.6 µM
24,CC(C)OC(=O)CSc1nc2ccccc2s1,inactive

row,SMILES,Potency
1,O=C(C1=C(O)C(=O)N(CCc2ccccc2)C1c1ccncc1)c1cc2ccccc2o1 (stereo not drawn),"inconclusive [activator, single point]"
2,O=C(c1ccc(Cl)c(S(=O)(=O)N2CCc3ccccc32)c1)N1CCN(c2ccccc2O)CC1,"inconclusive [activator, single point]"
3,S=C(NCCC1=CCCCC1)Nc1ccccc1,"inconclusive [activator, full curve]"
4,O=C(COC(=O)Cc1cccs1)Nc1ccc(OC(F)(F)F)cc1,inactive
5,COc1ccc(C2=NOC(COc3ccc4c(C)cc(=O)oc4c3)C2)c(OC)c1 (stereo not drawn),active: 25.9 µM
6,O=C(COC(=O)Cc1ccsc1)Nc1cccc(F)c1,inactive
7,Clc1nc(CN2CCCCC2)nc2sc3c(c12)CCC3,"inconclusive [activator, single point]"
8,CCOC(=O)c1c(C)[nH]c(C)c1S(=O)(=O)NC(CC)CN1CCOCC1 (stereo not drawn),inactive
9,CCCCOc1ccc(NC(=O)c2cnc(C)cn2)cc1,"inconclusive [activator, single point]"
10,Cc1nn(-c2ccc(F)cc2)c(C)c1NS(=O)(=O)c1ccc2ccccc2c1,"inconclusive [activator, single point]"
11,COc1ccccc1NC(=O)C1C2C=CC(C2)C1C(=O)NCc1cccnc1 (stereo not drawn),active: 4.61 µM
12,CCN(CC)CCNC(=O)c1ccc(NC(=O)c2ccccc2-c2ccc(C(F)(F)F)cc2)cc1,active: 20.6 µM
13,CC(C)c1ccc(-c2c(C#N)c(N)nc3c2CCCCC3)cc1,"inconclusive [activator, single point]"
14,COc1ccc(/C=C2/CSC/C(=C/c3ccc(OC)c(OC)c3)C2=O)cc1OC,"inconclusive [activator, full curve, poor fit]"
15,COc1ccc(N(C)S(=O)(=O)c2cccc(C(=O)OC(C(=O)Nc3cc(C)cc(C)c3)c3ccccc3)c2)cc1 (stereo not drawn),"inconclusive [activator, partial curve, poor fit]"
16,CN(CC1COc2ccccc2O1)C(=O)c1cccc(S(=O)(=O)N2CCCC2)c1 (stereo not drawn),inactive
17,CC(C)CNC(=O)CSc1nc2scc(-c3ccccc3)c2c(=O)[nH]1,"inconclusive [activator, partial curve, poor fit]"
18,CCN(Cc1ccccc1)C(c1cc2ccc(C)cc2[nH]c1=O)c1nnnn1CCOC (stereo not drawn),inactive
19,CC(C)NC(=O)c1ccc(N(Cc2ccccc2)S(C)(=O)=O)cc1,inactive
20,COCc1cc(Sc2ccc(Cl)cc2Cl)nc(-c2ccccc2)n1,"inconclusive [activator, partial curve, poor fit]"
21,Cc1nc(NC(=O)CSc2nc(N)cc(N)n2)sc1C,inactive
22,CCC(C)(C)NC(=O)C(c1ccccn1)N(C(=O)c1csnn1)C1CCCCC1 (stereo not drawn),active: 7.31 µM
23,O=C(Nc1ccc(SC(F)F)cc1)c1ccccc1F,inactive
24,CCOC(=O)Cc1c(C)nc2c(-c3cccc(Br)c3)c[nH]n2c1=O,active: 7.31 µM
